# Measurements from PubChem BioAssay AID1159614 (National Center for Advancing Translational Sciences (NCATS), 2016).
# The whole screen tested about 45,000 compounds, of which about 65 (0.1%) were called active. Calls come from the whole dose curve; as a rule, active = well fitted activation curve with a large enough effect; inconclusive = small, poorly fitted or top-dose-only effect; inactive = no such curve, though single readings can be large or run the other way. The list shows a part of the results.
# Molecular target: Galactocerebrosidase (Homo sapiens) (UniProt P54803)
# UniProt P54803, sequence (P54803 whole entry, looked up): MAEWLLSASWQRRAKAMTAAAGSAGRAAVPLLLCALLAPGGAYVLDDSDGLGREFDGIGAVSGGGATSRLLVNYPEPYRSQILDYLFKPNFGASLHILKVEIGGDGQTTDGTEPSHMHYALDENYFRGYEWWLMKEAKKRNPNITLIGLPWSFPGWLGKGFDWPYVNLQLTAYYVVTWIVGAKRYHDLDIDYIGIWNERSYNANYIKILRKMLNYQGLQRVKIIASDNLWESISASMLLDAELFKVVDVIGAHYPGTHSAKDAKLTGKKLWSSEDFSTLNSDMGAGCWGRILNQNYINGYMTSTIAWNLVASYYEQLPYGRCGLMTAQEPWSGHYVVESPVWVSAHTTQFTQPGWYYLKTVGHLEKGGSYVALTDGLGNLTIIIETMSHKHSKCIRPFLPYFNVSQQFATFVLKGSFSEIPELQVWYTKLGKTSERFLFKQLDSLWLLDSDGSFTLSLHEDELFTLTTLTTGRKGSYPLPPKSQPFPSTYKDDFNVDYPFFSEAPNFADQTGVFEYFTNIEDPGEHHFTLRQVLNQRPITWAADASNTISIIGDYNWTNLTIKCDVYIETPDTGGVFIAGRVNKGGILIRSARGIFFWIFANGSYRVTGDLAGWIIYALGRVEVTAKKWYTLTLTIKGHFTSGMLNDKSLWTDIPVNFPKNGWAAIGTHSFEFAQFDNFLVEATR
# Assay: A Novel Cell-Based Assay to Identify Small Molecules for B -Galactocerebrosidase; note: 0% is about no effect; nearly all actives have a fitted effect of over 65% in size
# Conditions: 145M-Twi-hGALC-G270D cells (Twitcher mouse brain line with human GALC G270D), HMU-beta-Gal fluorescence, 48 h; activation: at the top concentration
# Source text: Lysosomal storage diseases (LSDs) are caused by genetic mutations in genes encoding proteins important for normal lysosomal function. Globoid cell leukodystrophy (GLD), mostly known as Krabbe disease, is a prototype of the neurological LSDs caused by deficiency of beta-galactocerebrosidase (GALC). In brain specimens of GLD patients, psychosine levels are substantially elevated. At elevated concentrations, psychosine becomes cytotoxic to neuronal cells, particularly to oligodendrocytes (OLG), neural cells responsible for myelin formation. Therefore, the biochemical disturbances in GLD are manifested by different degrees of brain demyelination resulting in a broad spectrum of neurological manifestations. Most of the FDA-approved therapies are based on enzyme replacement therapeutic (ERT) agents, which treat non-neurological symptoms of Gaucher disease, Fabry disease, few mucopolysaccharidoses and Pompe disease. Unfortunately, in GLD, a primarily neurological LSD, ERT agents, as large molecular weight molecules unable to cross the blood-brain barrier, which makes this an inefficacious therapeutic approach. In GLD, increasing the residual GALC activity just above the critical threshold (~10% of wild type enzymatic activity), the cytotoxic levels of psychosine will be reduced, avoiding the OLGs apoptosis and the subsequent demyelination process. This will translate in disease stabilization and amelioration of GLD patient symptoms.
# A cell-based assay in 1,536-well plate format was developed to implement a quantitative high-throughput screening (qHTS) assay using GLD-disease relevant cells to identify small molecules that produce enhancements of the residual enzymatic activity levels of mutants GALC found and prevalent in GLD patients. Compounds that are active may therefore have some therapeutic application for GLD. After the treatment of live cells for a determined period, using a fluorescent GALC specific substrate, the mutant residual GALC activity is measured. This cell-based qTHS assay was used to screen part of the MLPCN library for small molecule able to increase the mutant GALC enzymatic activity. In this assay, increased fluorescent signal corresponds to enhanced levels of mutant GALC residual enzymatic activity. Activation is the desired outcome for this assay.
# NIH Chemical Genomics Center [NCGC]
# NIH Molecular Libraries Probe Centers Network [MLPCN]
# Assay Submitter (PI): Gustavo Maegawa MD,PhD, University of Florida, Gainesville, FL
# 2)#Two cell lines were established for the assay: 145M-Twi-hGALC-G270D (brain-derived Twitcher cell line stably expressing human GALC-G270D) and 145M-Twi-hGALC-WT (same 145M-Twi stably expressing human GALC wild type). The Twitcher is the murine C57B/6 model for GLD with naturally occurring homozygous nonsense GALC mutation. The 145M-Twi cell line was established at Maegawa lab (Ribbens J et al 2014).
# a.#Media: DMEM/F12 (1:1) with 10% fetal bovine-serum (FBS) with penicillin/streptomycin (PS-1X - 100 I.U./mL of penicillin+100 ug/mL of streptomycin).
# b.#The 6-Hexadecanoylamino-4-methylumbelliferyl-b-D-galactoside (HMU-B-gal) substrate was prepared as per Wiederschain et al 1992. Using 20-mL borosilicate tubes, 2.20 mg of HMU-b-Gal was added in each tube to prepare substrate-film with a final air-nitrogen stream evaporation to remove all diluent solvents.
# c.#The HMUb-Gal substrate buffer consists of 0.2 M Na2HPO4 (sodium phosphate dibasic)/ 0.1 M Citric Acid with the pH adjusted to 5.2 using HCl. Sodium Azide at 0.02% and Sodium Taurocholate (NaTC) at 1 mg/mL were added to this substrate buffer.
# d.#The HMU-b-Gal stopping buffer consist of 0.5 M NaHCO3 (sodium bicarbonate) /0.5 M Na2CO3 (sodium carbonate). […] Triton X-100 at 0.25% was added.
# 4)#Preparation of HMU-b-Gal substrate tubes
# Adding 18.6 mL of the HMUb-Gal substrate buffer to each 20-mL tube (2.20 mg of HMU-b-Gal) will reach a concentration of 0.2 mM. Vortex well the tube until the solution is fully homogenized (clear cloudy solution). […]
row,SMILES,activation
1,CCc1ccc(NC(=O)c2cccn(Cc3cccc([N+](=O)[O-])c3)c2=O)cc1,inactive: -16.1%
2,CCCCc1ccc(NC(=O)c2cccn(Cc3ccc(Cl)cc3)c2=O)cc1,inactive: -20%
3,Cc1c(C(c2ccc(Cl)cc2Cl)c2c(O)c3ccccc3oc2=O)c(=O)n(-c2ccccc2)n1C (stereo not drawn),inactive: -13.1%
4,O=c1c2ccccc2nc(/C=C\c2ccccc2F)n1-c1ccc(O)cc1,inactive: -16.1%
5,Cc1ccc(-n2c(/C=C/c3cc(Br)cs3)nc3ccccc3c2=O)cc1,inactive: -4.55%
6,Cc1ccccc1CN1C(=O)CN=C(c2ccccc2)c2cc(Cl)ccc21,inactive: 7.11%
7,COc1ccc(C(=O)Nc2ccc(Cl)cc2C(=O)c2ccccc2)c(OC)c1,inactive: -8.99%
8,Cc1ccc(OCC(=O)N2CCN(CCc3ccncc3)CC2)cc1C,inactive: -2.78%
9,COc1ccc(C(CN(C)C)C2(O)CCCCC2)cc1 (stereo not drawn),inactive: -22%
10,CC(C)(C)OC(=O)c1ncn2c1[C@@H]1CCCN1C(=O)c1c(Br)cccc1-2,inactive: -12%
11,Cc1cc(-n2c(/C=C/c3cccs3)nc3ccccc3c2=O)ccc1Br,inactive: -10.3%
12,CCN(CC)CCOC(=O)C(O)(c1ccccc1)c1ccccc1,inactive: -23.4%
13,Cc1cc(-n2c(/C=C/c3ccc(Br)s3)nc3ccccc3c2=O)ccc1Br,inactive: -15.7%
14,CCOP(=S)(OCC)Oc1cc(C)nc(C(C)C)n1,inactive: -17.9%
15,CNC(C)(C)Cc1ccccc1,inactive: -19.8%
16,OC(O)C(Cl)(Cl)Cl,inactive: -9.88%
17,COc1ccc(/C=C/c2nc3ccccc3c(=O)n2-c2ccc(C)cc2)cc1O,inactive: -10.3%
18,C[C@]12CCC(=O)C(O)=C1CC[C@@H]1[C@@H]2CC[C@]2(C)C(=O)CC[C@@H]12,inactive: -12.5%
19,CC[C@H]1C[C@@H]2C[C@H]3c4[nH]c5ccc(OC)cc5c4CCN(C2)[C@@H]13,inactive: -9.75% [at 114 µM]
20,O=C(Nc1ccon1)c1cccn(Cc2ccccc2)c1=O,inactive: -10.8%
21,c1ccc(C2CC2)c(OCC2=NCCN2)c1,inactive: -14.9%
22,Nc1cccc2c(N)cccc12,inactive: -13.8% [at 114 µM]
23,O=C(C1CCCN(S(=O)(=O)c2cccc3nsnc23)C1)N1CCN(c2cccc(Cl)c2)CC1 (stereo not drawn),inactive: -50.1%
24,[Cl][In]([Cl])[Cl],inactive: -12.6% [at 114 µM]
25,Cc1cccc(-n2c(/C=C/c3cn(C)c4ccccc34)nc3ccccc3c2=O)c1,inactive: -15.1%

row,SMILES,activation
1,O=C(O)CCCOc1ccc(Cl)cc1Cl,inactive: -7.64% [at 114 µM]
2,Cc1cc(NC(=O)c2cccn(Cc3cccc(Cl)c3)c2=O)no1,inactive: -5.38%
3,O=c1c(O)c(-c2ccc(O)c(O)c2)oc2cc(O)cc(O)c12,inactive: -34.1%
4,Cc1ccc(-c2nc(CN3C(=O)CN=C(c4ccccc4)c4cc(Cl)ccc43)c(C)o2)cc1,inactive: 14.3%
5,COCC(=O)N(c1c(C)cccc1C)C(C)C(=O)OC (stereo not drawn),inactive: -13.6%
6,O=S1(=O)N(Cc2ccccc2)CCCN1Cc1cccc(Cl)c1,inactive: -2.3%
7,Cc1ccc(Cn2cccc(C(=O)Nc3cc([N+](=O)[O-])ccc3C)c2=O)cc1,inactive: -15.8%
8,CCCN(CCC)c1c([N+](=O)[O-])cc(S(N)(=O)=O)cc1[N+](=O)[O-],inactive: -45.4% [at 114 µM]
9,O=C(COc1cccc(Cl)c1)N1CCN(CCc2ccncc2)CC1,inactive: -2.9%
10,O=C(COc1ccccc1Cl)N1CCN(CCc2ccncc2)CC1,inactive: 19.9%
11,N#Cc1cc2c(nc1SCC(=O)Nc1ccc(OC(F)(F)F)cc1)C1CCN2CC1,inactive: -1.07%
12,CC(Cc1ccccc1)NCCCCl (stereo not drawn),inactive: -4.6%
13,CCC(OC(C)=O)C(CC(C)NC)(c1ccccc1)c1ccccc1 (stereo not drawn),inactive: 2.59% [at 129 µM]
14,CC(C)NCC(O)c1ccc(N)c(C#N)c1 (stereo not drawn),inactive: -14.6%
15,CNCC(O)c1ccc(O)cc1 (stereo not drawn),inactive: -14.4%
16,C[C@]12CCC(=O)C=C1CC[C@@H]1[C@@H]2CC[C@@]2(C)[C@H]1CC[C@]2(C)O,inactive: -14.1%
17,O=C(CCc1nc(C2=CCN(Cc3cccc(Cl)c3)CC2)no1)Nc1ccccc1F,inactive: -10%
18,COc1ccc(OCC(=O)N2CCN(Cc3cc(=O)n4nc(-c5ccccc5C)sc4n3)CC2)cc1,inactive: 10.3%
19,CC(=O)NS(=O)(=O)c1ccc(NC(=O)c2cccn(Cc3ccc(Cl)cc3)c2=O)cc1,inactive: -11.8%
20,O=c1c2ccccc2nc(/C=C\c2ccc(F)cc2)n1-c1ccccc1F,inactive: -3.75%
21,O=c1[nH]c2cc(Cl)ccc2n1C1CCNCC1,inactive: -13%
22,Cc1cccc(NC(=O)Cn2cc(C(=O)c3ccccc3)c3ccccc32)c1,inactive: 12.2%
23,CN(C)CCc1c[nH]c2cccc(OP(=O)(O)O)c12,inactive: 5.9% [at 114 µM]
24,CCS(=O)(=O)C(C)(C)S(=O)(=O)CC,inactive: -13.3%
25,Cc1c(C(c2ccc(F)cc2)c2c(O)c3ccccc3oc2=O)c(=O)n(-c2ccccc2)n1C (stereo not drawn),inactive: -15.5%

row,SMILES,activation
1,O=C(COc1ccc(Cl)cc1)Nc1ccc(Cl)cc1C(=O)c1ccccc1,inactive: -6.87%
2,Nc1ccc([As](=O)(O)O)cc1,inactive: -13.7%
3,Cc1nnc(NC(=O)c2cccn(Cc3ccccc3F)c2=O)s1,inactive: -9.59%
4,S=C(SSC(=S)N1CCCCC1)N1CCCCC1,inactive: -7.81%
5,O=C1CC(c2c(F)cccc2Cl)c2c(c3ccccc3oc2=O)O1 (stereo not drawn),inactive: -13.8%
6,CCOP(=O)(NC(C)C)Oc1ccc(SC)c(C)c1 (stereo not drawn),inactive: -10.8% [at 114 µM]
7,CCCCCCCCC(=O)NCc1ccc(O)c(OC)c1,inactive: -10.4%
8,CCC12CN3CC(CC)(CN(C1)C3c1ccccn1)C2=O (stereo not drawn),inactive: -9.98%
9,CC(=O)N1CC(=O)Nc2ccc(F)cc2C1c1ccccc1 (stereo not drawn),inactive: -16.7%
10,O=S(=O)(O)C(F)(F)C(F)(F)C(F)(F)C(F)(F)F,inactive: -7.67% [at 129 µM]
11,Cc1cc(C)cc(-n2c(=O)[nH]c3ccccc3c2=O)c1,inactive: -9.1%
12,Cc1ccc([N+](=O)[O-])[c]2c1[O][Hg]2,inactive: 1.49%
13,COP(=S)(OC)Oc1cc(Cl)c(Cl)cc1Cl,inactive: -19.2%
14,CCCSc1nc2ccccc2c(=O)n1-c1ccccc1OC,inactive: -7.32%
15,O=C(O)c1ccc(=O)[nH]c1,inactive: -11.1%
16,O=C1CC(c2ccc(Br)cc2)c2c(c3ccccc3oc2=O)O1 (stereo not drawn),inactive: -5.99%
17,CC[N+]1(CC)CCC(OC(=O)C(O)(c2ccccc2)c2ccccc2)C1 (stereo not drawn),inactive: -13.7%
18,O=C(Nc1ccon1)c1cccn(Cc2cccc(Cl)c2)c1=O,inactive: -24.3%
19,C=CCC1([C@H](C)CCC)C(=O)NC(=O)NC1=O,inactive: -10.7% [at 114 µM]
20,Cc1oc(-c2ccc(Cl)cc2)nc1CN1C(=O)CN=C(c2ccccc2)c2ccccc21,inactive: 15.3%
21,Cc1cccc(NC(=O)Cn2cc(C(=O)c3ccccc3)c3ccccc32)c1C,inactive: -11.5%
22,O=c1[nH]c2ccccc2c(=O)n1-c1ccc(Cl)c(Cl)c1,inactive: -20.5%
23,Cc1ccc(NC(=O)N(Cc2ccc3c(c2)OCO3)C2CCN(Cc3ccccc3)CC2)cc1F,inactive: 0.878%
